Reference: the supplement of paper PMC4967469
The IC50 comes from the fitted curve, where viability falls to half of the control; where the fit passes the top or lowest dose, that dose stands as a limit. AUC sums up the same curve from the lowest dose to the 256-fold higher top dose; the more sensitive the line, the further below 1. Any top dose called inferred is not printed in the source and was worked back from the curve model.

Assays:
Assay in all cases: Viability of human cancer cell lines after 72 h of drug (GDSC screen)
KIN001-266 = compound: CCN1CCC(n2cc(CNc3cc(Cl)c4ncc(C#N)c(Nc5ccc(F)c(Cl)c5)c4c3)nn2)CC1 [KIN001-266]; details: top dose 20 µM; top dose inferred
Experimental: (§1)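 Human cancer cell lines in 384-well plates, medium with 10% serum, drug for 72 h over a 256-fold dose range (nine 2-fold or five 4-fold steps up to the top dose). Adherent lines were fixed and stained with the nucleic acid dye Syto60, suspension lines read with resazurin; signal relative to control wells, capped at 0 and 100%. One two-parameter sigmoid per drug and line, fitted in a mixed model over all curves with the slope shared within a line.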

QL-XII-47 = compound: C=CC(=O)N1CCc2ccc(-n3c(=O)ccc4cnc5ccc(-c6cnn(C)c6)cc5c43)cc21 [QL-XII-47]; details: top dose 10.24 µM; top dose inferred
Experimental: as §1

CCT007093 = compound: O=C1/C(=C/c2cccs2)CC/C1=C\c1cccs1 [CCT007093]; details: top dose 6.6 µM; top dose inferred
Experimental: as §1

BAY 61-3606 = compound: COc1ccc(-c2cc3nccn3c(Nc3ncccc3C(N)=O)n2)cc1OC [BAY 61-3606]; details: top dose 8 µM; top dose inferred
Experimental: as §1

| Cell Line | AUC (KIN001-266) | IC50 (KIN001-266) | AUC (QL-XII-47) | IC50 (QL-XII-47) | AUC (CCT007093) | IC50 (CCT007093) | AUC (BAY 61-3606) | IC50 (BAY 61-3606) |
| --- | --- | --- | --- | --- | --- | --- | --- | --- |
| DND-41 (T-cell leukaemia, suspension) | 0.79 | 7.79 µM | 0.613 | 1.26 µM | 0.989 | > 6.6 µM | 0.676 | 1.45 µM |
| SK-MM-2 (myeloma, suspension) | 0.813 | 11.4 µM | 0.557 | 0.923 µM | 0.987 | > 6.6 µM | 0.931 | > 8 µM |
| TGBC24TKB (biliary tract, adherent) | 0.966 | > 20 µM | 0.906 | > 10.2 µM | 0.989 | > 6.6 µM | 0.99 | > 8 µM |
| SK-MEL-2 (melanoma, adherent) | 0.975 | > 20 µM | 0.883 | > 10.2 µM | 0.987 | > 6.6 µM | 0.661 | 1.43 µM |
| EFO-21 (ovary, adherent) | 0.905 | > 20 µM | 0.875 | > 10.2 µM | 0.957 | > 6.6 µM | 0.914 | > 8 µM |
| SW1417 (large intestine, adherent) | 0.952 | > 20 µM | 0.979 | > 10.2 µM | 0.979 | > 6.6 µM | 0.986 | > 8 µM |
| no-10 (glioma, adherent) | 0.911 | > 20 µM | 0.638 | 1.68 µM | 0.973 | > 6.6 µM | 0.952 | > 8 µM |
| NALM-6 (B-cell leukaemia, suspension) | 0.819 | 9.1 µM | 0.309 | 0.207 µM | 0.972 | > 6.6 µM | 0.476 | 0.435 µM |
| OVMIU (ovary, adherent) | 0.87 | > 20 µM | 0.595 | 1.25 µM | 0.966 | > 6.6 µM | 0.892 | > 8 µM |
| MC116 (B-cell lymphoma, suspension) | 0.927 | 14.2 µM | 0.788 | 3.17 µM | 0.999 | > 6.6 µM | 0.768 | 2.22 µM |
| BB30-HNC (head and neck, adherent) | 0.861 | 16.4 µM | 0.655 | 1.7 µM | 0.981 | > 6.6 µM | 0.768 | 2.93 µM |
| BT-20 (breast, adherent) | 0.966 | > 20 µM | 0.564 | 1 µM | 0.957 | > 6.6 µM | 0.978 | > 8 µM |
| OCI-AML5 (acute myeloid leukaemia, suspension) | 0.893 | > 20 µM | 0.487 | 0.592 µM | 0.989 | > 6.6 µM | 0.74 | 2.26 µM |
| NCI-H1666 (lung adenocarcinoma, semi-adherent) | 0.864 | > 20 µM | 0.85 | 8.92 µM | 0.987 | > 6.6 µM | 0.961 | > 8 µM |
| JHU-011 (head and neck, adherent) | 0.866 | 17.3 µM | 0.643 | 1.58 µM | 0.968 | > 6.6 µM | 0.831 | 4.94 µM |
